Assay results taken from PMC5836133.
The other results are listed elsewhere or left out. At the low end of the ranking the order means little.

test system: T1, GST-NbGlk1(82-244); test: protein-binding microarray; conditions: NbGlk1 is a Golden2-like transcription factor of Nicotiana benthamiana; high values mean tight binding; most listed sequences are background and not binding sites; double strand, one strand shown;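 note: rank-based score ranging −0.5 to +0.5 with E above 0.45 taken as significant binding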
T1 sequence: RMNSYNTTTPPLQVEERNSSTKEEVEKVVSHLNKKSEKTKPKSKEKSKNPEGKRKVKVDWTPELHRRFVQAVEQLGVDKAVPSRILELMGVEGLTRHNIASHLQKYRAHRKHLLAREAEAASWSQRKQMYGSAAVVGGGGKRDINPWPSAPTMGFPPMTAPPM

Sequence | binding signal [E-score]
ACACCACA | 0.00957
ACCTGTCC | -0.197
AGGCGAAA | -0.0654
CAAAACGC | -0.0779
ACTCCACC | -0.189
AACTGCAC | -0.0858
ACTTAGCT | -0.123
ACAAACAC | 0.0713
ACCCTATG | -0.143
AACGGCAA | 0.0308
CACTCATA | 0.00605
ATCCTGGG | 0.119
AAATTAGT | 0.117
CAATTTCC | 0.106
AGTATGGG | -0.00145
AATTCATA | 0.148
ATCGGTTG | -0.0354
AAAAAAGT | -0.00117
AGTGGAAT | 0.189
AGGACTCG | -0.224
AAGTGTCT | -0.0299
AGAAACGA | 0.0428

Sequence | binding signal [E-score]
ACGTCCTC | -0.248
ATAGGCCA | -0.173
AGTACATC | -0.0227
ATCAATGA | 0.142
ACTTAGTA | -0.0258
AGTGATCC | 0.0245
ATCCAACC | 0.155
AGAATCAA | 0.342
AAGCGGCT | -0.31
ACTGTAAG | -0.102
ATCACCCG | 0.0161
AATTACAG | 0.106
CAGCACAC | -0.291
CACCCGTC | -0.173
AACGTGAA | -0.0439
AAGTCCTC | -0.225
AAAGGGTA | -0.148
AGTGACGA | 0.00185
ATATTTCC | 0.369
ATCTCCAA | 0.342
ACGTGCCG | -0.147
AACAGGTA | -0.0243

Sequence | binding signal [E-score]
ACGACGTA | -0.00586
AATAGGGT | -0.133
AGACGCAG | -0.154
ATGACGAG | -0.102
ATTAGTCA | 0.0301
AGCTCAGC | -0.244
ATACAATC | 0.274
CAAGAATC | 0.385
AATTGTAT | 0.111
CAAATTGG | -0.0553
CAAAACTC | -0.116
ATGTTGGG | -0.0347
ACACATTA | 0.144
AAACTACA | -0.0503
AGTTTGTC | -0.107
ACGTGCTA | -0.0432
ACCCAGAG | 0.00787
CAATATCC | 0.337
AAATCGAT | 0.336
AACCTAAC | -0.037
AGCGCCGG | -0.259
ATGTGGAG | 0.0128

Sequence | binding signal [E-score]
AGCCCGCC | -0.268
AACCGGGT | -0.137
AGCAATAG | -0.138
AATGATAT | 0.224
AAGAGGGA | -0.225
AGTGAGCC | -0.281
CACGCATA | -0.0545
ACTAATCA | 0.0498
AACTAGGT | -0.0661
ACCGTCCG | 0.0565
AGCGTGGC | -0.213
AGAGCGAC | -0.188
AAATAAAC | 0.0819
AGAAATGA | -0.0745
AATTCCGT | 0.185
ACAAGTAC | -0.11
ACCATCTA | 0.00644
ACAATCAC | 0.186
ATAAGCTG | -0.0233
AACAGGCC | -0.181
